# Data taken from paper PMC4336329 (PLoS ONE, 2015).
# About 14,000 (4.5%) of roughly 310,000 compounds showed an effect of 50% or more. Effects have a minus sign here. The list shows a part of the results.
# Molecular target: human ether-à-go-go-related gene (hERG) potassium channel (human, UniProt Q12809)
# Assay: primary screen, population patch clamp on CHO cells stably expressing hERG
# 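Also: peak tail current of the secondary pulse compared with the same well before compound.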
# Sequence of human ether-à-go-go-related gene (hERG) potassium channel (Q12809 whole entry, looked up): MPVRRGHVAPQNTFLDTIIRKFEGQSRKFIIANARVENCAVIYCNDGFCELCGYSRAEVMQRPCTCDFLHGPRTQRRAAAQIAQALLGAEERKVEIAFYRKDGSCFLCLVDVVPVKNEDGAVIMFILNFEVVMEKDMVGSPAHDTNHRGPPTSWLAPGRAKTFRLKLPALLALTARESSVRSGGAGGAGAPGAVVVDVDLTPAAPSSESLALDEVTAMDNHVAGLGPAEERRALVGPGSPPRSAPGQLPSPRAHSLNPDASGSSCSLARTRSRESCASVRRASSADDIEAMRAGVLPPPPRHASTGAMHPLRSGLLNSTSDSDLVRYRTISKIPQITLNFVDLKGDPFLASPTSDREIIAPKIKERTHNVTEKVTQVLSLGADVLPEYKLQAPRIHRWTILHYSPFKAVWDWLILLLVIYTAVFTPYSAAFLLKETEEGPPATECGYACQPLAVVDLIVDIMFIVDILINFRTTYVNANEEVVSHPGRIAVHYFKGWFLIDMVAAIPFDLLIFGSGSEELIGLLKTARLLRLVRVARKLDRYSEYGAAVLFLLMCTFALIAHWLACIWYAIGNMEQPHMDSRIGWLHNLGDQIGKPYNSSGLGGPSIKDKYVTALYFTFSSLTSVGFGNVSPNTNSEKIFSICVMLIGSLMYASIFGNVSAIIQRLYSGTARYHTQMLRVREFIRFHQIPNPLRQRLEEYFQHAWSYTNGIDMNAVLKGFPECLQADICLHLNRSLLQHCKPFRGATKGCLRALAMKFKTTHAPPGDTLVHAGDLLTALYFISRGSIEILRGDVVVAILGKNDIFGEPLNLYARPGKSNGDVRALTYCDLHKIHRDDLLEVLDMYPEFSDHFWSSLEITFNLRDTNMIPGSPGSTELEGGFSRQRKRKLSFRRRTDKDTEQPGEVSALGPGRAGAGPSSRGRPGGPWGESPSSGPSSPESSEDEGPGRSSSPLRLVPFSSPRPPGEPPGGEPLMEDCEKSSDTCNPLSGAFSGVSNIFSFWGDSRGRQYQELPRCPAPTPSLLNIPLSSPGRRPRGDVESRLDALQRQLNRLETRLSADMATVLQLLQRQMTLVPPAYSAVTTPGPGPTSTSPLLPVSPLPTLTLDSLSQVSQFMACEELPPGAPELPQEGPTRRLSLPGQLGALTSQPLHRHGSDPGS
row,Structure (SMILES),"hERG current change (%, negative = inhibition) at 10uM"
1,COC(=O)[C@@]1(Cc2ccc(F)cc2)[C@H]2c3cc(C(=O)N(C)C)n(CCc4ccccn4)c3C[C@H]2CN1C(=O)c1ccccc1,-64.8%
2,CCOc1ccc(C2NC(=O)c3ccccc3O2)cc1OC (centres unmarked),17.1%
3,CCN(CC)CCCNC(=O)c1c(O)c2cc(F)cc3c2n(c1=O)C(C)CC3.Cl (centres unmarked),-50.5%
4,Cc1ccc2occ(C3N[C@H](C(=O)O)CS3)c(=O)c2c1 (some centres unmarked),4.25%
5,COc1cc2c(cc1NC(=O)CSc1ccccn1)oc1ccccc12,17%
6,COc1ccc(CN2CCN(Cc3cc4ccccc4o3)CC2CCO)c(F)c1 (centres unmarked),-60.9%
7,CCCCCc1c(C)[nH]c2nc3ccccc3n2c1=O,12.2%
8,CCCCn1c(N)c(N(CCOC)C(=O)C2CCN(C(=O)c3ccccc3C)CC2)c(=O)[nH]c1=O,-4.9%
9,O=C(c1cccc(F)c1)N1CCCC(C(=O)N2CCCCC2)C1 (centres unmarked),16.6%
10,Cc1cc2c(c(/C=C/C(=O)c3ccccc3)c1)OC1(C=C2)Oc2ccccc2C(=O)N1C (centres unmarked),12.7%
11,COc1ccccc1-n1cccc1C=O,26.9%
12,O=S(=O)(Nc1ccc(Cl)cn1)c1cccc(S(=O)(=O)c2ccccc2)c1,-6.89%
13,Fc1ccccc1-n1c(-c2ccc3ccccc3n2)n[nH]c1=S,7.45%
14,CCN(C(=O)c1c(-c2ccccc2)noc1C)c1ccccc1,1.1%
15,CCOC(=O)C1CCN(C(=O)c2cc3c(s2)-c2ccccc2OC3)CC1,-38.9%
16,O=C(Nc1ccc2c(c1)Cc1ccccc1-2)c1cc2ccccc2o1,7.73%
17,Cn1c(=S)n(/N=C/c2cccs2)c2ccccc21,-7.88%
18,Cc1ccc(NC(=O)CN2C(=O)c3ccccc3S2(=O)=O)cc1C,14.5%
19,Nn1c(SCC(=O)N2CCCc3ccccc32)nnc1-c1ccccc1,2.21%

row,Structure (SMILES),"hERG current change (%, negative = inhibition) at 10uM"
1,CSc1nnc2n(C)c3c(c(=O)n12)C1(CCCC1)Cc1ccccc1-3,2.33%
2,COc1ccccc1OCC(=O)NNC(=O)c1ccc2c(=O)n3c(nc2c1)CCC3,12.9%
3,O=C(O)C(F)(F)F.Oc1cc(-c2cccnc2)cc2cccnc12,13.3%
4,N#Cc1cnn(Cc2ccc(Cl)cc2)c1N,-13%
5,Cc1c(C(=O)C(C)C)n(C)c2ccccc12,7.37%
6,CC(Oc1ccc(Cl)cc1Cl)C(=O)NCCCn1ccnc1 (centres unmarked),-28%
7,O=C(CCC(=O)OCC(F)(F)C(F)F)NCc1ccccc1,5.56%
8,Nc1ncc(Br)cc1S(=O)(=O)NCCC(=O)N1CCN(c2ccccc2)CC1,-8.45%
9,CCOC(=O)CS(=O)(=O)CC(=O)Nc1ccc([N+](=O)[O-])cc1OC,-5.39%
10,COc1cccc(-c2csc(N3CCN(C(=O)NC45CC6CC(CC(C6)C4)C5)CC3)n2)c1,11.1%
11,CC1CCCC(N2CCN(C(=O)c3ccc([N+](=O)[O-])cc3)CC2)C1.O=C(O)C(=O)O (centres unmarked),-71.9%
12,CCOC(=O)N1CCC(C(=O)NNC(=O)c2ccc(Cl)cc2Cl)CC1,4.03%
13,C=CCc1ccc(OCCOCCOc2ccccc2[N+](=O)[O-])c(OC)c1,-20.2%
14,CC(C)(C)CC(=O)Nc1nnc(CCc2ccccc2)s1,10.1%
15,CC(C)CC1C(C#N)=C(N)Oc2n[nH]c(-c3ccccc3)c21 (centres unmarked),7.28%
16,O=C(COc1ccc2c3c(c(=O)oc2c1)CCC3)NCCCN1CCCC1=O,9.37%
17,COc1ccc(NC(=O)C(=O)NCC(c2ccco2)N2CCc3ccccc3C2)cc1OC (centres unmarked),-69.4%
18,CCn1cc(C(=O)NCC2CCCO2)c(=O)c2cc(S(=O)(=O)N(C)C)ccc21 (centres unmarked),3.99%
19,Cc1cc(NC(=O)CSc2nccn2-c2cccc(C)c2C)no1,0.368%

row,Structure (SMILES),"hERG current change (%, negative = inhibition) at 10uM"
1,O=C(O)/C=C/c1ccc2c(-c3ccccc3)onc2c1,8.05%
2,Nc1ccc([As](=O)(O)O)cc1,-0.804%
3,CCOC(=O)N1CCN(C(=O)CN2C(=O)COc3ccc(S(=O)(=O)N4CCOCC4)cc32)CC1,15.1%
4,COC(=O)Cc1nnc(NC(=O)C(C)C)s1,8.98%
5,COC(=O)C1=C(COc2ccc(C=O)cc2OC)NC(=O)NC1c1cc(C)ccc1C (centres unmarked),6.02%
6,NC(=O)c1ccccc1NC(=O)CSC1=NCCS1,16.1%
7,COC(Cc1n[nH]c(=S)n1-c1ccc(Cl)cc1)OC,8.38%
8,CC(Nc1nc(-c2cccnc2)nc2ccccc12)c1ccc(F)cc1 (centres unmarked),-27.8%
9,CCOc1ccc(NC(=O)C(c2ccccn2)N(C(=O)CCl)c2ccc(OCC)cc2)cc1 (centres unmarked),-17.3%
10,Cc1cc2c(cc1S(=O)(=O)N(C)Cc1ccccc1)n(C)c(=O)c(=O)n2C,-42.7%
11,O=C(CN1CCCCC1)N/N=C/c1ccc(Cl)cc1Cl,-39.1%
12,Cc1cc(C)nc(N(C#N)CC(=O)Nc2ccccc2)n1,7.2%
13,COc1ccccc1C(=O)NCC(C)(C)CN=C1NS(=O)(=O)c2ccccc21,-23.3%
14,Cc1nc2sccn2c(=O)c1S(=O)(=O)N1CCN(c2ccc(F)cc2)CC1,-70.2%
15,O=C(CC(C(=O)N1CCc2ccccc21)n1ccnc1)NCc1ccccc1 (centres unmarked),-26.5%
16,O=C(CSc1nnc(-c2ccco2)o1)c1ccccc1Cl,-4.07%
17,CC(C)=CCCC1(C)C=Cc2c(ccc3c2[nH]c2cc(O)c(C)cc23)O1 (centres unmarked),5.43%
18,Cc1c(N2C(=O)/C(=C/c3ccccc3)SC2=S)c(=O)n(-c2ccccc2)n1C,-25.9%
